± gives the standard deviation of the averaged measurements. The list shows a part of the results.
The sequences below were run on PfAP2-I AP2 domain 3 (GST-tagged) (assay: gcPBM binding intensity (ln(normalized median fluorescence intensity)); higher = stronger DNA binding).
Procedure, shortened: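 For binding intensity, the highest Masliner-normalised natural-log median intensity across replicate spots of either probe orientation was taken. Protein bound to the array was stained with Alexa488 anti-GST antibody and scanned at 488 nm. The protein, GST-tagged P. falciparum DNA-binding domains from E. coli at about 25 μg on average, had been applied for 1 h to an Agilent 4 × 180k array of primer-extended double-stranded 36-bp intergenic genomic probes and negative controls.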

Row | Sequence | gcPBM binding intensity (ln)
1 | AAAAAAAAAAAAATATATATATATATATATATATAT [GTGCAC_negctrl_site212] | 9.49 ± 0.43
2 | AAATGTAAATTTATCCGTACATATATATATTTATAT [XGTACX_site7024] | 7.66 ± 0.43
3 | AAAAAAAAAAATTAAAGTACAAAAATATTAAAAATA [XGTACX_site6517] | 7.53 ± 0.42
4 | TTTTTTGTATTTTTCACACACACATAAGTAAACAAT [CACACA_site1900] | 8.29 ± 0.5
5 | TATTATGTATGTATATGTACGTATCTTATTTTATTT [XGTACX_site5008] | 7.68 ± 0.36
6 | TATACATACATTAGACGTACACATTTTACCTACACC [XGTACX_site3586] | 8.2 ± 0.14
7 | AAATTATTATATATATGTACGTATAATGTATTTTGT [XGTACX_site2903] | 7.77 ± 0.31
8 | AAATATAGAATACATGTGCACATAATATATATATAT | 9.65 ± 0.16
9 | TCTTTTTAAGGGATTTTTTTTTTTTTTTTAAAAAGA [CACACA_negctrl_site1274] | 7.38 ± 0.45
10 | TTTGTATCTATATATTGTACGAATTACTTTCATTTA [XGTACX_site4785] | 7.71 ± 0.58
11 | AATACAATTTATAACACACACACAAGAATACCTATA [CACACA_site6705] | 7.99 ± 0.29
12 | TATATATATATATATACACACACACCCATATATATA [CACACA_site8812] | 9.62 ± 0.56
13 | ACATAAATAAATTAATGTACATATATATTTGTATAT [XGTACX_site3160] | 7.71 ± 0.16
14 | TTTTTTTTTTTTTCAAGTACATATATATATATATAA [XGTACX_site2098] | 7.99 ± 0.45
15 | TTTTTATATGTTAAGTGTACGTTTACATTTTATACT [XGTACX_site3485] | 8.06 ± 0.36
16 | TGTTGTTACAGATATACACACATATATATATTATAT [CACACA_site5342] | 7.84 ± 0.54
17 | TTGGGTGCATATATTTGTACACATTATTTCTATTTT [XGTACX_site3688] | 11.2 ± 0.85
18 | TAAATTATAACGTGCACACATATTTAAAATGAAATG [CACACA_site2820] | 11.3 ± 0.23
19 | ATAAACATGGAAATGTATTAAAAGCAAGTATATAAA [XGTACX_negctrl_site516] | 7.8 ± 0.76
20 | AAAAAAAATTTCTTCACACATAAATAAATAAATAAA [CACACA_site4841] | 7.88 ± 0.81
21 | TGCATTTATATCTTCACACATATATATATATATATA [CACACA_site4516] | 9.29 ± 0.49
22 | ATATGTATATATACATGTACATATTTTTCCTTTCTT [XGTACX_site149] | 7.55 ± 0.38
23 | ATTAAAAATTCAATTGCACACGCACATATTTTAATA [CACACA_site8618] | 8.91 ± 0.092

Row | Sequence | gcPBM binding intensity (ln)
24 | ATGTAATAAAATAATTGTACAATGTAACTAATTTTT [XGTACX_site2871] | 7.71 ± 0.52
25 | CTTCTTTTGTGATAAAGTACAAATATTTTGAAATAT [XGTACX_site1156] | 7.93 ± 0.22
26 | TTTTCTATAAGATTTGCACACAACTTATTCTATTAA [CACACA_site3752] | 9.03 ± 0.2
27 | ATAAATAAATAAATAAATATATATATGAAATAATGT [TGCATGCA_negctrl_site12] | 7.74 ± 0.54
28 | AAAAAATATAAAACGAGTACATATATAATAAGCAAA [XGTACX_site1360] | 7.96 ± 0.32
29 | ATTATAGACAACTCTTTTTCTAAACTATTTTATTTT [CACACA_negctrl_site1754] | 7.76 ± 0.8
30 | CATAATATTTGTGAAAGTACTTATTTTACAATAGGG [XGTACX_site5004] | 7.89 ± 0.34
31 | TTTATTCTCCACACCCGTACACATTTTTTTTGCATA [XGTACX_site5615] | 8.47 ± 0.42
32 | AAAAAAAAAAAAAACACACACACACGCAGATATATA [CACACA_site6672] | 8.09 ± 0.69
33 | TTTCTTAAAATATAAAGTACTAAAATGAAAATATAT [XGTACX_site2173] | 7.87 ± 0.35
34 | AAATAAAGAAATATATGTACATATATATATATATAT [XGTACX_site5131] | 9.48 ± 0.55
35 | ATATATATATACATATGTACATATATATTTATACAT [XGTACX_site2463] | 8.93 ± 0.13
36 | TACACAGACGGACACACACACACACTAGAAAAAAAA [CACACA_site4435] | 8.18 ± 0.37
37 | AATGCACTATTTAAAAGTACACATAAGAAAAGCATA [XGTACX_site1739] | 9.24 ± 0.28
38 | GCTAAACAATAGTTTGCACACAATTTAAATATATAT [CACACA_site193] | 8.55 ± 0.3
39 | AATATAATATAATGCACACATAAAAAAAAAAAAATC [CACACA_site1303] | 11 ± 0.64
40 | TTATATACATTAAATGAACACACATAAATAAATTAC [CACACA_site8927] | 7.64 ± 0.49
41 | AGTATAAATATATTATGTACATATATATTATACTTA [XGTACX_site2623] | 7.68 ± 0.28
42 | ATTTTTTTTATGTATTATGCTTTTATATCCTTCATA [CACACA_negctrl_site1244] | 8.02 ± 0.69
43 | AAAGAATTTGCATATACACACAAAAAAATAAATACA [CACACA_site4373] | 7.83 ± 0.53
44 | ATTTCTTTTACATTTACATGCAATGCTCTATAGATA [TGCATGCA_site62] | 8.09 ± 0.73
45 | CTTACCAAAAAACACACACACACAAAATATATAAAT [CACACA_site1870] | 7.96 ± 0.53

Reference: the supplement of paper PMC11417369
